Over roughly 4,100 sequences, “relative CpG methylation activity (normalised to average over all NNNCGNNN flanks)” has its median near 0.87; the highest 2% begin near 2.4. The list shows a part of the results.

This experiment has as its target DNMT3A catalytic domain (mouse) (UniProt O88508). Description: relative CpG methylation activity (normalised to average over all NNNCGNNN flanks) (relative (1 = mean)); higher = more methylation of the central CpG. As to conditions: system: in vitro, murine catalytic domain; CpG state: hemimethylated substrate pool; residues: 608-908. On the procedure:
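Deep enzymology: a pool of dsDNA substrates with a central CpG flanked by 10 random nucleotides on each side was methylated by the murine DNMT3A or DNMT3B catalytic domain (0.8 mM SAM, 37 °C, 60 min). Methylation was then read out by hairpin ligation, bisulfite conversion and NGS. Values are the average methylation of each NNNCGNNN context (±3 flanks; the outer flanks are random and averaged over), normalised to the overall mean, so 1 = average activity.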
Turning to CCGCGACT, the “relative CpG methylation activity” value was 0.959.

For the sequence TAACGACA, the “relative CpG methylation activity” value was determined as 0.757.

For CTTCGAAC, the “relative CpG methylation activity” value was 1.43.

As to CTCCGCAT, the “relative CpG methylation activity” value turned out to be 1.57.

Regarding AATCGAAC, the “relative CpG methylation activity” value is 0.609.

For the sequence GGCCGGCG, the “relative CpG methylation activity” value was 0.667.

As for TACCGGAC, the “relative CpG methylation activity” value was 0.736.

In the case of GGGCGGCT, the “relative CpG methylation activity” value came out at 0.408.

For the sequence ATCCGTAA, the “relative CpG methylation activity” value amounted to 1.55.

As to GATCGCGT, the “relative CpG methylation activity” value stood at 0.317.

Consider TCGCGCAA, for which the “relative CpG methylation activity” value stood at 0.881.

AGGCGGCA: the “relative CpG methylation activity” value turned out to be 0.573.

For ACCCGCGA, the “relative CpG methylation activity” value is 0.886.

For GGGCGCTA, the “relative CpG methylation activity” value came to 0.886.

Turning to AATCGTTC, the “relative CpG methylation activity” value is 0.385.

For TCCCGCCG, the “relative CpG methylation activity” value turned out to be 1.54.

In the case of ATCCGGAA, the “relative CpG methylation activity” value amounted to 0.939.

With ATACGTTA, the “relative CpG methylation activity” value was determined as 1.8.

Consider CCTCGGAA, for which the “relative CpG methylation activity” value was determined as 0.89.

For the sequence CCTCGTGC, the “relative CpG methylation activity” value was 0.658.

As for TTCCGGGC, the “relative CpG methylation activity” value was 1.57.

Turning to GCGCGGCA, the “relative CpG methylation activity” value came out at 0.876.

Regarding TACCGTAA, the “relative CpG methylation activity” value came out at 0.741.

GGCCGTGT: the “relative CpG methylation activity” value turned out to be 0.253.

With GGACGGCG, the “relative CpG methylation activity” value amounted to 0.549.

As to GCACGGCG, the “relative CpG methylation activity” value was determined as 0.955.

Turning to CTTCGACC, the “relative CpG methylation activity” value was 1.23.

Turning to GTACGCCT, the “relative CpG methylation activity” value was found to be 2.41.

Consider CAGCGCTT, for which the “relative CpG methylation activity” value is 1.34.

Consider CTCCGGAT, for which the “relative CpG methylation activity” value worked out at 1.39.

For TTTCGTGT, the “relative CpG methylation activity” value came to 0.603.

On to ATCCGAAG, for which the “relative CpG methylation activity” value was 0.858.

AGGCGCAA: the “relative CpG methylation activity” value was determined as 0.518.

As to TTCCGCAA, the “relative CpG methylation activity” value amounted to 1.97.

On to TCCCGTGC, for which the “relative CpG methylation activity” value is 0.865.

With TTGCGCAA, the “relative CpG methylation activity” value amounted to 1.32.

Turning to GTACGACC, the “relative CpG methylation activity” value came out at 2.03.

As to GGACGTTA, the “relative CpG methylation activity” value is 0.944.

For CGCCGTAT, the “relative CpG methylation activity” value is 0.281.

Turning to AGACGTGC, the “relative CpG methylation activity” value is 0.425.

As for ATGCGCCT, the “relative CpG methylation activity” value is 2.22.

GTGCGGGC: the “relative CpG methylation activity” value stood at 0.714.

For the sequence AAACGCCG, the “relative CpG methylation activity” value was determined as 1.05.

On to GTTCGACG, for which the “relative CpG methylation activity” value came out at 0.833.

CAACGGGG: the “relative CpG methylation activity” value turned out to be 0.45.

On to TGCCGGTG, for which the “relative CpG methylation activity” value worked out at 0.417.

Regarding GGTCGAGT, the “relative CpG methylation activity” value came out at 0.224.

As for GTCCGCGA, the “relative CpG methylation activity” value came out at 1.63.

Take GCGCGGTT: the “relative CpG methylation activity” value turned out to be 0.606.

As to GCTCGTCG, the “relative CpG methylation activity” value worked out at 1.41.

In the case of CGCCGGCT, the “relative CpG methylation activity” value stood at 0.619.

As for GGACGGCA, the “relative CpG methylation activity” value is 1.15.

GGTCGATT: the “relative CpG methylation activity” value worked out at 0.548.

Turning to CAGCGCTG, the “relative CpG methylation activity” value amounted to 0.814.

On to ATACGAAG, for which the “relative CpG methylation activity” value worked out at 1.39.

Take GACCGCCC: the “relative CpG methylation activity” value turned out to be 1.92.

Take AGACGAAT: the “relative CpG methylation activity” value worked out at 0.678.

AAACGGCC: the “relative CpG methylation activity” value stood at 1.

Consider CTTCGCGT, for which the “relative CpG methylation activity” value came to 1.21.

As to ATTCGTCG, the “relative CpG methylation activity” value came to 1.06.

For the sequence TTGCGGTT, the “relative CpG methylation activity” value came out at 0.956.

Regarding CTACGCCT, the “relative CpG methylation activity” value turned out to be 2.79.

Turning to TGTCGTGT, the “relative CpG methylation activity” value amounted to 0.125.

As to CTTCGTCC, the “relative CpG methylation activity” value turned out to be 2.08.

For the sequence GAGCGGTA, the “relative CpG methylation activity” value stood at 0.682.

As for TACCGGAT, the “relative CpG methylation activity” value came to 0.52.

In the case of TGACGTAA, the “relative CpG methylation activity” value stood at 0.953.

Regarding ACGCGGAG, the “relative CpG methylation activity” value stood at 0.291.

Consider AAACGGGG, for which the “relative CpG methylation activity” value is 0.413.

CTACGCAG: the “relative CpG methylation activity” value was found to be 1.43.

Take GGACGAGT: the “relative CpG methylation activity” value turned out to be 0.693.

GGCCGGTG: the “relative CpG methylation activity” value turned out to be 0.339.

Regarding AGCCGCGG, the “relative CpG methylation activity” value is 0.105.

Regarding ATTCGACA, the “relative CpG methylation activity” value was found to be 0.787.

With AAGCGACT, the “relative CpG methylation activity” value stood at 0.584.

Consider ACACGGAT, for which the “relative CpG methylation activity” value was determined as 0.928.

For CACCGCCC, the “relative CpG methylation activity” value is 1.82.

As to CATCGCAT, the “relative CpG methylation activity” value was 0.689.

With AAACGGGT, the “relative CpG methylation activity” value came to 0.601.

Consider GCGCGCCC, for which the “relative CpG methylation activity” value worked out at 2.18.

In the case of GTGCGGCA, the “relative CpG methylation activity” value was determined as 1.34.

Turning to TACCGGTT, the “relative CpG methylation activity” value was determined as 0.569.

On to TCACGAAT, for which the “relative CpG methylation activity” value was found to be 1.07.

Turning to CGCCGTAA, the “relative CpG methylation activity” value is 1.14.

In the case of ATGCGTGA, the “relative CpG methylation activity” value came to 0.656.

With ATTCGCAT, the “relative CpG methylation activity” value amounted to 1.

As for CAACGGAG, the “relative CpG methylation activity” value came to 0.355.

Take CCCCGGAC: the “relative CpG methylation activity” value is 1.16.

Regarding ATTCGATT, the “relative CpG methylation activity” value amounted to 0.683.

On to GTGCGCAA, for which the “relative CpG methylation activity” value is 1.3.

Regarding CGTCGTGA, the “relative CpG methylation activity” value worked out at 0.12.

Turning to CAGCGAGC, the “relative CpG methylation activity” value stood at 0.568.

With TTCCGCTC, the “relative CpG methylation activity” value amounted to 2.73.

In the case of GAACGCTC, the “relative CpG methylation activity” value is 1.64.

On to CTACGTTC, for which the “relative CpG methylation activity” value was 2.3.

As for CCTCGATC, the “relative CpG methylation activity” value was 1.26.

On to AAGCGCGC, for which the “relative CpG methylation activity” value turned out to be 0.435.

ACCCGTCC: the “relative CpG methylation activity” value came out at 1.95.

In the case of AAACGTTT, the “relative CpG methylation activity” value was 0.364.

Turning to TCGCGAGC, the “relative CpG methylation activity” value was 1.48.

Turning to CCACGGTA, the “relative CpG methylation activity” value is 1.35.

In the case of ACGCGCTG, the “relative CpG methylation activity” value turned out to be 1.61.

Consider TGACGCTA, for which the “relative CpG methylation activity” value came to 0.76.

Regarding CTCCGATT, the “relative CpG methylation activity” value came to 1.36.

Regarding CTACGGAG, the “relative CpG methylation activity” value is 0.543.

As for GCGCGCTC, the “relative CpG methylation activity” value stood at 1.9.

Consider ATGCGCCC, for which the “relative CpG methylation activity” value was 2.44.

ACTCGCGA: the “relative CpG methylation activity” value amounted to 0.856.

Consider CGCCGAAG, for which the “relative CpG methylation activity” value worked out at 0.375.

These data come from the supplement of paper PMC7335073.
